From article PMC4918322
Changes are numbered by the printed parent chain. No constants are given. Whether binding was seen depends on the method and setting. In cells and extracts the contact can be indirect. Some entries that bind do so weakly or less than the wild type. Where a sequence is shown, tags or fusion partners need not be part of it.

Legend:
Assay in all cases: co-IP; RSF1 KO HeLa cells transfected with RSF1-C1-V5 constructs, paclitaxel 16 h; mitotic lysates immunoprecipitated with anti-V5 antibody, immunoblotting
[1] = biological target: T1, V5-tagged RSF1-C1 (amino acids 627-1441) (human) (UniProt Q96T23)
T1 sequence: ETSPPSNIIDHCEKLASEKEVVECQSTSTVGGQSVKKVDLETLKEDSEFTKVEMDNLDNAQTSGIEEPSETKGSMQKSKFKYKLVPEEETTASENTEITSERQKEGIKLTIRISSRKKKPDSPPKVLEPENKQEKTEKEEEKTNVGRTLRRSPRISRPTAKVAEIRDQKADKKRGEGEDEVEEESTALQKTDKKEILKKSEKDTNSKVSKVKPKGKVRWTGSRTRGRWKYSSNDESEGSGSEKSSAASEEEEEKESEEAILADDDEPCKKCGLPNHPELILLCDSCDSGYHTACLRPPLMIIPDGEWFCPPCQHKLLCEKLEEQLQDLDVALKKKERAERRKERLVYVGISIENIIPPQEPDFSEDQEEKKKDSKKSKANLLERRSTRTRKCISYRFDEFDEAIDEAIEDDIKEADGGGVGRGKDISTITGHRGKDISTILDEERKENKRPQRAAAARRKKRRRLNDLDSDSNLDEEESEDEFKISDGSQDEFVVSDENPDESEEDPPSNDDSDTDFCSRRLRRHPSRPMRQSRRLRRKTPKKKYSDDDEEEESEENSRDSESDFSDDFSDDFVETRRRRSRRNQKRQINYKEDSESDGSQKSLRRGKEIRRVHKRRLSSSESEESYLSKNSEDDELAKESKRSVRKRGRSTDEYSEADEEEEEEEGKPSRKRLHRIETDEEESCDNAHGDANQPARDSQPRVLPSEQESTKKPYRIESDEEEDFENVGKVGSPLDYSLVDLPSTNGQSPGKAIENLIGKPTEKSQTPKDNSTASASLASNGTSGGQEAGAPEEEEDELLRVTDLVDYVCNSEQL

[2] = biological target: T2, V5-tagged RSF1-C1 S1359A (human) (UniProt Q96T23)
T2 sequence: T1 sequence with S733A

[3] = biological target: T3, V5-tagged RSF1-C1 S1375D (human) (UniProt Q96T23)
T3 sequence: T1 sequence with S749D

Measured: binding

endogenous PLK1 (from UniProt P53350 1-603)
binds: all assays above
